Measured values reported in publication PMC4336329 (PLoS ONE, 2015).
The whole screen tested about 310,000 compounds, of which about 14,000 (4.5%) showed an effect of 50% or more. The effect is printed as a negative number. The list shows a part of the results.

biological target: human ether-à-go-go-related gene (hERG) potassium channel (human, UniProt Q12809); assay: primary screen, population patch clamp on CHO cells stably expressing hERG
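Also: peak tail current of the secondary pulse compared with the same well before compound.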

Chain of human ether-à-go-go-related gene (hERG) potassium channel (Q12809 whole entry, looked up): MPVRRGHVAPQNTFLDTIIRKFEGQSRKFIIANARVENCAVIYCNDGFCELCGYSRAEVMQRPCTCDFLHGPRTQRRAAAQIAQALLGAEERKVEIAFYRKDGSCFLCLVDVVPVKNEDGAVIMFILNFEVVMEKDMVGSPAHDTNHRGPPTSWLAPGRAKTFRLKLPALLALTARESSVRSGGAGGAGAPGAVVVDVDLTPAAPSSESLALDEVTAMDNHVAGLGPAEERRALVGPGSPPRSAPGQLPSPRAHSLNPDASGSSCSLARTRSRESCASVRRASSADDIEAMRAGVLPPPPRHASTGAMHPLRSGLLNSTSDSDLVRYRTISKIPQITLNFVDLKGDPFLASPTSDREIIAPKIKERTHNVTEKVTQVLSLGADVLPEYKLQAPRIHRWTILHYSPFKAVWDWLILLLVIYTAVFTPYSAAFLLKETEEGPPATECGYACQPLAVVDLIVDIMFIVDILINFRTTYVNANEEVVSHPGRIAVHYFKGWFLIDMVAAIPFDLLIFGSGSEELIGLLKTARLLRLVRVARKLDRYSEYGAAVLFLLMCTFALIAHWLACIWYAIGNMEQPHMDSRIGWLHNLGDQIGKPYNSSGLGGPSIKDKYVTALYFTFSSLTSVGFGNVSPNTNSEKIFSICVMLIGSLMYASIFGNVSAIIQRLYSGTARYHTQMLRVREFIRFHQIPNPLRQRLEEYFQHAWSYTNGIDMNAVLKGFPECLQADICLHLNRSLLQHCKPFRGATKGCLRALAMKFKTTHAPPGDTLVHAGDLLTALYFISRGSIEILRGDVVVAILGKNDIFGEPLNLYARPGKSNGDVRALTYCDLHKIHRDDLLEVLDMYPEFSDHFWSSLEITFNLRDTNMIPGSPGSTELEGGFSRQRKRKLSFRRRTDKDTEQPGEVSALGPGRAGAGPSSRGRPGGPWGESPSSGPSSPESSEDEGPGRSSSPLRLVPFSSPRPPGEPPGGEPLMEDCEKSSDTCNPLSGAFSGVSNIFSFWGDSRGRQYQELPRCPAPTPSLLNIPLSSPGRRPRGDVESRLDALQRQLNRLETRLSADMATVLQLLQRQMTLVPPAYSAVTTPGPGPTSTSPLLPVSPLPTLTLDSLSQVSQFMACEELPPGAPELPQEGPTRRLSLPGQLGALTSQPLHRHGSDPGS

| SMILES | hERG current change (%, negative = inhibition) at 10uM [%] |
| --- | --- |
| CC(C)Oc1ccc(N2CC(C(=O)Nc3ccccc3F)CC2=O)cc1 (stereo not shown) | -17.2 |
| CCOC(=O)c1ccc(COC(=O)c2cc3ccccc3oc2=O)o1 | -48.6 |
| CCOC(=O)N1CCN(c2c(Nc3ccc4c(c3)OCCO4)c(=O)c2=O)CC1 | 6.3 |
| Cc1cccc(C)c1OCCOC(=O)c1cccc(S(=O)(=O)N2CCOCC2)c1 | -9.01 |
| O=C(O)CN1C(=O)COc2cc(S(=O)(=O)N3CCCC3)ccc21 | 10.2 |
| Cl.Nc1ccc2nc(CCCO)[nH]c2c1 | 17 |
| O=C(c1cnccn1)N1CCc2ccccc21 | 23.9 |
| COCCN1C(=O)C(=O)/C(=C(/O)c2cccc(OC)c2)C1c1ccc(C)o1 (stereo not shown) | -14.5 |
| CC(=O)Nc1ccc(C(=O)CSc2cc(C)c3cccc(C)c3n2)cc1 | 14 |
| Cc1ccc2c(CC(=O)OCc3csc(C)n3)coc2c1 | 2.73 |
| NS(=O)(=O)c1ccc(CCNC(=O)CSc2nc3ccsc3c(=O)n2CC2CCC(C(=O)O)CC2)cc1 (stereo not shown) | 26.9 |
| O=C(O)c1cc(S(=O)(=O)NC(Cc2c[nH]c3ccccc23)C(=O)O)ccc1Cl (stereo not shown) | 11.7 |
| COC(=O)C1[C@H]2C(=O)N(Cc3cccs3)C[C@]23C=C[C@H]1O3 (stereo partly shown) | -29.4 |
| Cc1ccnc(SCC(=O)O)n1 | 5.35 |
| Nc1oc2ccccc2c(=O)c1C=O | 8.89 |
| Cc1ccc(O)c(Nc2ncnc3ccccc23)c1.Cl | 11.8 |
| Cc1[nH]n2c(=O)c(C#N)c(-c3ccccc3)nc2c1-c1ccccc1 | 16.5 |
| COc1cccc(CNC(=O)CN2CCC(c3nc4ccc(C)cc4[nH]3)CC2)c1 | -68.4 |
| CC1SC(C)C(=O)N(CC(=O)Nc2ccc([N+](=O)[O-])cc2)C1=O (stereo not shown) | -18.2 |
| N/C(=N\N=C\c1cccs1)SC1CC(=O)N(c2cccc([N+](=O)[O-])c2)C1=O (stereo not shown) | 5.92 |
| CCSc1[nH]c2ccccc2[nH+]1.[Cl-] | 5.51 |
| CS(=O)(=O)N1CCC(C(=O)NCc2ccco2)CC1 | 6.1 |

| SMILES | hERG current change (%, negative = inhibition) at 10uM [%] |
| --- | --- |
| O=C(NCCCN1CCOCC1)c1cc2ccccc2o1 | 4.37 |
| CN(C)C(CNC(=O)c1ccc(Br)cc1)c1ccco1 (stereo not shown) | 7.58 |
| O=C(CN1C(=O)COc2ccc(S(=O)(=O)N3CCOCC3)cc21)Nc1cccc(Cl)c1 | 18.4 |
| Cc1nnc(SCC(=O)Nc2cc(-c3cc(C)c(C)cc3C)nn2-c2ccccc2)s1 | -26.2 |
| O=C(Nc1ccc(OC(=O)c2ccccc2)c(-c2nc3ccccc3s2)c1)c1ccccc1 | 21.5 |
| CC1CCCCC1NC(=O)CCNS(=O)(=O)c1ccc(Cl)cc1 (stereo not shown) | -18.1 |
| CCCCc1nc2cc(C(=O)NC(C)c3cnn(C)c3)ccc2o1 (stereo not shown) | -0.0448 |
| COc1ccc(S(=O)(=O)NCC2CCCO2)cc1NC(=O)c1ccccc1 (stereo not shown) | -15.4 |
| CC(=O)OCCCNc1cc(Sc2ccc(Cl)cc2)c2nonc2c1[N+](=O)[O-] | 17.5 |
| Cc1ccccc1NC(=O)Cc1nc(COC(=O)Cc2ccccc2)cs1 | -14.2 |
| COC(=O)CCC(=O)OC1(C)C(=O)C2=CN(Cc3ccccc3)C(c3ccc(OC)cc3)=CC2=C(Br)C1=O (stereo not shown) | 2.01 |
| CCn1c(C(=O)N2CCCC(C(=O)NCCc3ccc(C)cc3)C2)cc2sccc21 (stereo not shown) | -45.2 |
| C=CCNC(=O)C1CC(=O)N(c2ccc(OCc3ccc(F)cc3)cc2)C1 (stereo not shown) | 12.2 |
| Cc1nn(-c2ncc(C(F)(F)F)cc2Cl)c(=O)n1-c1cccc(F)c1 | -0.241 |
| CCOC(=O)c1cnc2c(Cl)cc(Cl)cc2c1NCCCN1CCOCC1 | -4.47 |
| COc1cc(OC)cc(C(=O)N(CN2CCCC2=O)c2ccccc2OC)c1 | -9.07 |
| C/C(=N\NC(=O)CCC(=O)Nc1ccc(C)c(C)c1)c1cccs1 | 23.1 |
| Nc1nc(Br)c2c(F)cccc2c1-c1ccc(F)cc1 | -1.07 |
| CCn1c(SCCOc2ccc(Cl)cc2)nnc1-c1cccs1 | -53.8 |
| CC(=O)NC(CC(=O)OCc1ccc([N+](=O)[O-])cc1)c1ccccc1 (stereo not shown) | -63.1 |
| COc1cc(/C=N/NC(=O)c2cccc(N3CCCC3=O)c2)ccc1O | 14.4 |
| Cc1ccc(N(C(=O)Cn2nnc(-c3ccccc3)n2)C(C(=O)NC2CCCCC2)c2ccccn2)cc1C (stereo not shown) | 12.1 |

| SMILES | hERG current change (%, negative = inhibition) at 10uM [%] |
| --- | --- |
| OCCC1CN(Cc2nc3ccccc3s2)CCN1C1CCCCC1 (stereo not shown) | -60 |
| CCCCNC(=O)/C(C#N)=C/c1cccnc1 | 5.91 |
| COc1ccc(NC(=O)C(OC(=O)c2ccc([N+](=O)[O-])o2)c2ccccc2)cc1Cl (stereo not shown) | -18.4 |
| CCN(CC)c1ccc(/C=N/NC(=O)c2cc(C)nc3ccccc23)cc1 | -6.45 |
| CC(=O)c1cccc(NC(=O)c2ccc(CN3CCc4ccccc4C3)cc2)c1 | -6.26 |
| CCn1c(=O)cc(SCC(=O)NCc2ccc3c(c2)OCO3)c2ccccc21 | -25.2 |
| COC(=O)c1ccccc1NC(=O)CSc1nc(NC(=O)c2ccccc2)c2c(C)c(C)oc2n1 | 15.6 |
| CCCCSc1[nH]c(=O)c(C(=O)OCC)cc1C#N | -3.9 |
| NC(=O)c1ccc[n+](CC(=O)c2cccc([N+](=O)[O-])c2)c1.[Br-] | 16.9 |
| O=C(COC(=O)c1ccc(-c2ccccc2)cc1)Nc1ccccc1-c1ccccc1 | 5.61 |
| Cc1noc(C)c1CSCC(=O)N(CCC(C)C)c1c(N)n(Cc2ccccc2)c(=O)[nH]c1=O | 21.4 |
| Cn1c(SCc2ccccc2C#N)nc2ccccc2c1=O | 22.5 |
| CC1CCCCC1NC(=O)c1cccc(S(=O)(=O)N2CCN(C)CC2)c1 (stereo not shown) | -7.48 |
| Cc1ccc(CNc2ccc(S(=O)(=O)N3CCOCC3)cc2[N+](=O)[O-])cc1 | -20.4 |
| CC1CN(c2oc(Cc3cccc4ccccc34)nc2C#N)CC(C)O1 (stereo not shown) | -1.84 |
| CSCC[C@H](NC(=O)[C@@H]1CSC2c3ccccc3C(=O)N21)C(=O)NC1CCCC1 (stereo partly shown) | 2.54 |
| CCOC(=O)Cn1nc(C)c(NC(=O)COc2cccc(Cl)c2)c1C | 2.62 |
| O=C(Cc1ccccc1)N/N=C/c1ccccc1Cl | 2.14 |
| CCCn1c(=S)[nH]c2cc(C(=O)N3CCc4ccccc4C3)ccc2c1=O | 11.6 |
| CC[C@H](C)/C=C/C1=CC2=C(Cl)C(=O)[C@@]3(C)OC(=O)C(C(=O)[C@H](C)[C@@H](C)O)=C3C2=CO1 | 11.2 |
| CCOC(=O)Cc1cc(=O)n2[nH]c(C)c(-c3ccccc3)c2n1 | -4.84 |
| C=CCN(Cc1ccc(Cl)s1)C(=O)CNC(=O)CNC(=O)c1ccc(Cl)cc1Cl | -70.6 |

| SMILES | hERG current change (%, negative = inhibition) at 10uM [%] |
| --- | --- |
| CN(C(=O)c1cccc(NC(=O)c2cccs2)c1)c1ccccc1 | -1.32 |
| Clc1ccc(OCCN2CCN(c3ncnc4sccc34)CC2)cc1 | -81.2 |
| O=C(CSCc1ccccc1Cl)NN=C1CCCCCC1 | -17.8 |
| Cc1ccc(S(=O)(=O)N2CCCC2)cc1C(=O)N1CCN(Cc2ccccc2)CC1 | -8.29 |
| CC(=O)c1cccc(N(C(=O)Cn2nnc3ccccc32)C(C(=O)NCc2ccccc2)c2ccccn2)c1 (stereo not shown) | -39 |
| COC(=O)COc1ccc(NC(=O)c2ccco2)cc1 | 0.568 |
| COc1cc(CCNC(=O)c2cnn3ccccc23)cc(OC)c1OC | 0.701 |
| COc1ccc(NC(=O)CN2CCN(S(=O)(=O)c3ccc(F)cc3)CC2)cc1Cl | -1.67 |
| CN(CC(=O)Nc1ccccc1Cl)CC(=O)Nc1sc2c(c1C(N)=O)CCC2 | -66.2 |
| CC(=O)Oc1oc(-c2ccccc2)nc1C=Nc1ccc(N(C)C)cc1 | 14.2 |
| CN(CC(=O)Nc1ccc(N2CCOCC2)cc1)C(=O)c1cccc(Cl)c1Cl | -7.53 |
| Cc1ccc(C(=O)CSc2nnc(C(C)C)n2C)cc1C | 11.2 |
| COc1ccc(COCC(CC(C)C)N2CCN(C(=O)c3cccc(C(F)(F)F)c3)CCC2=O)cc1 (stereo not shown) | -19.8 |
| O=C(O)/C=C/c1ccccc1Oc1ccc(Cl)cc1Cl | -8.85 |
| COc1ccc(-c2ccc(=O)n(CC(=O)Nc3cccc(O)c3)n2)cc1OC | 19.8 |
| Cc1noc(C)c1COc1ccccc1C(=O)NNC(=O)C(C)Oc1ccccc1F (stereo not shown) | -33.9 |
| Cc1ccc2c(Cl)c(C(=O)NCC(c3ccco3)N3CCCC3)sc2c1 (stereo not shown) | 3.84 |
| CCN(CCNC(=O)C1CCN(S(=O)(=O)CC)CC1)c1ccccc1 | -16.9 |
| CSc1nc(C(=O)N2CCCC(Nc3ccc(C)c(C)c3)C2)cs1 (stereo not shown) | -22.4 |
